Assay results: PubChem BioAssay AID504832 (National Center for Advancing Translational Sciences (NCATS), 2011)
Out of some 310,000 compounds screened, about 18,000 (5.8%) were called active. Inconclusive results, whose numbers are uncertain, are shown with a selection of clear calls. Calls come from the whole dose curve; as a rule, active = well fitted inhibition curve with a large enough effect; inconclusive = small, poorly fitted or top-dose-only effect, or another doubt; inactive = no such curve, though single readings can be large or run the other way. No potency is given beside an inconclusive call; the fits are too rough.

Assay: Primary qHTS for delayed death inhibitors of the malarial parasite plastid, 48 hour incubation
Conditions: P. falciparum luciferase growth in erythrocytes; series mostly up to 28.7 µM; activity change, negative = inhibition: at the top concentration
In short: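 Firefly luciferase activity from engineered P. falciparum reports growth; inhibitors lower the luminescent signal. Cultures contained 2% hematocrit erythrocytes at 0.1% final parasitemia.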
% is set by controls: 0 for no effect and ±100 for the full control effect; potency is the fitted concentration of half-maximal effect; tags give direction and shape of the fitted curve.

Structure (SMILES)	activity change, negative = inhibition	Potency
Cc1cc2oc(=O)sc2cc1NS(=O)(=O)c1cccc2cccnc12	inactive: 0.7%	
COc1ccc(-c2c3c(cc4ncn(Cc5ccccc5)c24)COC3=O)cc1		inconclusive [inhibitor, partial curve, poor fit]
O=C(/C=N/O)Nc1ccccc1		inconclusive [inhibitor, single point]
O=C(c1ccc(N2CCN(C(=O)c3ccccc3)CC2)cc1)c1cccc(F)c1		inconclusive [inhibitor, single point]
CCCC(=O)NC(Nc1cccc(C(F)(F)F)c1)C(Cl)(Cl)Cl (centres undefined)		inconclusive [inhibitor, partial curve]
Cc1ccc(/C=C/C(=O)NCCc2ccccc2)o1	inactive: 83%	
Cc1c(Cl)cccc1NC(=O)CSc1nc2ncc(Cl)cc2[nH]1		inconclusive [inhibitor, partial curve]
CC(C)N(C(=O)c1ccc2nc(-c3ccccc3)c(-c3ccccc3)nc2c1)C(C)C		inconclusive [inhibitor, single point]
CCc1ccc(-c2nc(CN3CCC(C(=O)NCCc4ccc(OC)c(OC)c4)CC3)c(C)o2)cc1		inconclusive [inhibitor, single point]
COc1ccc(-n2nc([N+](=O)[O-])c(=NCc3cccnc3)n2O)cc1	inactive: 227%	
O=C(NCc1ccccc1)c1ccco1	inactive: 0.192%	
CC1(C)OCC(COC(=O)Nc2cccnc2)([N+](=O)[O-])CO1	inactive: -6.23%	
COc1ccc(NC(=O)C2CC(c3ccccc3Cl)=NO2)cc1 (centres undefined)	inactive: 36%	
CCCCn1c(N)c(N(CCOC)C(=O)c2cccc(N3C(=O)c4ccccc4C3=O)c2)c(=O)[nH]c1=O	inactive: -5.41%	
O=C(Nc1ccccc1N1CCN(C(=O)c2ccccc2)CC1)c1ccc([N+](=O)[O-])o1		inconclusive [inhibitor, partial curve]
Cc1cc(N2CCN(S(=O)(=O)c3ccc4ccccc4c3)CC2)n2ncnc2n1		inconclusive [inhibitor, partial curve, poor fit]
CCOc1ccc(CN(C)CC(=O)NCc2ccccc2Cl)cc1	inactive: 29.5%	
CCc1nc2ccccc2n1Cc1ccc(OC)c(OC)c1		inconclusive [inhibitor, single point]
COc1ccc(Cc2noc(CN3CCC(c4ccncc4)CC3)n2)cc1OC		inconclusive [inhibitor, single point]
O=C(Cn1cc(C(F)(F)F)ccc1=O)N1CCN(S(=O)(=O)c2ccccc2)CC1		inconclusive [inhibitor, single point]
N/C(Cc1ccc(Cl)cc1)=N\OC(=O)C1CCCCC1		active: 5.86 µM
O=C(Cc1csc(NC(=O)Nc2ccc(Cl)cc2)n1)NCc1cccnc1		inconclusive [inhibitor, single point]

Structure (SMILES)	activity change, negative = inhibition	Potency
Cc1ccccc1N/N=C/c1c(C)nc2ccccn12		active: 9.28 µM
COc1cc(C(=O)Nc2ccc3nc(N4CCOCC4)sc3c2)cc(OC)c1OC		inconclusive [inhibitor, partial curve, poor fit]
CCCc1cc(=O)oc2cc(OCC(=O)N3CCN(C(=O)C4COc5ccccc5O4)CC3)ccc12 (centres undefined)		inconclusive [inhibitor, partial curve, poor fit]
Cc1ccc(-c2nc(CS(=O)(=O)CC(=O)N3CCc4ccccc4C3)c(C)o2)cc1	inactive: -18.1%	
CC(C)C(=O)N1CCN(c2nc(-c3ccccc3)c3c(c2C#N)CC(C)(C)OC3)CC1		active: 13.1 µM
CN1C(=O)Cc2cc(S(=O)(=O)N3CCN(c4ccc(Cl)cc4)CC3)ccc21		inconclusive [inhibitor, partial curve, poor fit]
CC(=O)N1c2ccccc2C(C)(c2ccccc2)CC1(C)C (centres undefined)		active: 9.28 µM
Cc1cc(C)c(C#N)c(Oc2ccccc2)n1		inconclusive [inhibitor, partial curve, poor fit]
O=C(c1ccccc1)N1CCN(C(=O)c2ccc3c(c2)OCCO3)CC1		inconclusive [inhibitor, partial curve, poor fit]
CCN(CC)S(=O)(=O)c1ccc2c(c1)nc(SCC(=O)NCC1CCCO1)n2CC (centres undefined)		inconclusive [inhibitor, partial curve]
CC(C)(C)C(=O)NC(n1cnc2c(N3CCOCC3)ncnc21)C(Cl)(Cl)Cl (centres undefined)		inconclusive [inhibitor, single point]
COc1ccc2c(Cl)c(C(=O)NCCCn3ccnc3)sc2c1		inconclusive [inhibitor, single point]
COc1ccc(CCNC(=O)CSc2nnc(-c3ccc(F)cc3)c3ccccc23)cc1OC		active: 9.28 µM
C[C@H]1O[C@H](O[C@H]2[C@H](O[C@@H]3CC[C@@]4(C)C(CC[C@]5(C)C4CC=C4[C@@H]6CC(C)(C)CC[C@]6(C(=O)O[C@@H]6O[C@H](CO)[C@@H](O)[C@H](O)[C@H]6O)CC[C@]45C)C3(C)C)O[C@H](C(=O)O)[C@@H](O)[C@@H]2O)[C@@H](O)[C@@H](O)[C@@H]1O (some centres undefined)	inactive: 13.4%	
CCOC(=O)C1(Cc2ccccc2)CCN(C2Cc3ccccc3C2)CC1		inconclusive [inhibitor, single point]
Cc1ccccc1Nc1nc(N)nc(CCl)n1		inconclusive [inhibitor, partial curve]
O=C(CN1CCN(Cc2ccccc2)CC1)Nc1cccc(Cl)c1	inactive: 3.36%	
O=C(NC(=S)Nc1ccc(Cl)cc1Cl)C1CC1	inactive: 24.5%	
O=C(NC(=S)Nc1ccc2c(c1)OCCO2)c1ccc(F)cc1Cl	inactive: 68.8%	
COC(=O)C1=C(c2ccc(F)cc2OCc2ccccc2)C[C@@H]2CC[C@H]1N2C(=O)NCc1ccc2c(c1)OCO2		active: 2.94 µM
O=C(NC1CCCc2ccccc21)c1ccc(F)cc1F (centres undefined)	inactive: 13.3%	
C#CCOCCOCCOCCNc1nc(N2CCN(C(=O)[C@H](CCC(=O)O)n3cc(C(N)[C@H](C)CC)nn3)CC2)nc(N2CCN(C(=O)[C@H](Cc3ccc(O)cc3)n3cc(C(N)[C@H](C)CC)nn3)CC2)n1 (some centres undefined)	inactive: 0%	
